Reference: the supplement of paper PMC3334620
Whole data set: some 33,000 sequences, median “E-score (-0.5 to 0.5)” near -0.053, cut for the highest 2% near 0.37. The list shows a part of the results.

Each sequence was assayed against Hap1 (UniProt P0CE41) (assay: PBM E-score (8-mer binding enrichment) (E-score (-0.5 to 0.5)); higher = stronger / more preferred TF binding; most listed sequences are background and not binding sites). Conditions: protein concentration: 200 nM; construct: GST-DNA-binding domain.
Outline: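 GST-tagged yeast TFs (full-length or DNA-binding domain) were made by PURExpress in vitro transcription/translation and applied at about 100-200 nM to universal all-10-mer Agilent arrays. The arrays were made double-stranded by primer extension, on fresh or once-stripped slides. Bound protein was detected with fluorescent anti-GST, and scans were normalised with masliner. Each ungapped eight-base word, pooled with its reverse complement, received an E-score (modified Wilcoxon-Mann-Whitney statistic) from the Universal PBM Analysis Suite.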

UniProt P0CE41, sequence (P0CE41 whole entry, the tested form may be a part): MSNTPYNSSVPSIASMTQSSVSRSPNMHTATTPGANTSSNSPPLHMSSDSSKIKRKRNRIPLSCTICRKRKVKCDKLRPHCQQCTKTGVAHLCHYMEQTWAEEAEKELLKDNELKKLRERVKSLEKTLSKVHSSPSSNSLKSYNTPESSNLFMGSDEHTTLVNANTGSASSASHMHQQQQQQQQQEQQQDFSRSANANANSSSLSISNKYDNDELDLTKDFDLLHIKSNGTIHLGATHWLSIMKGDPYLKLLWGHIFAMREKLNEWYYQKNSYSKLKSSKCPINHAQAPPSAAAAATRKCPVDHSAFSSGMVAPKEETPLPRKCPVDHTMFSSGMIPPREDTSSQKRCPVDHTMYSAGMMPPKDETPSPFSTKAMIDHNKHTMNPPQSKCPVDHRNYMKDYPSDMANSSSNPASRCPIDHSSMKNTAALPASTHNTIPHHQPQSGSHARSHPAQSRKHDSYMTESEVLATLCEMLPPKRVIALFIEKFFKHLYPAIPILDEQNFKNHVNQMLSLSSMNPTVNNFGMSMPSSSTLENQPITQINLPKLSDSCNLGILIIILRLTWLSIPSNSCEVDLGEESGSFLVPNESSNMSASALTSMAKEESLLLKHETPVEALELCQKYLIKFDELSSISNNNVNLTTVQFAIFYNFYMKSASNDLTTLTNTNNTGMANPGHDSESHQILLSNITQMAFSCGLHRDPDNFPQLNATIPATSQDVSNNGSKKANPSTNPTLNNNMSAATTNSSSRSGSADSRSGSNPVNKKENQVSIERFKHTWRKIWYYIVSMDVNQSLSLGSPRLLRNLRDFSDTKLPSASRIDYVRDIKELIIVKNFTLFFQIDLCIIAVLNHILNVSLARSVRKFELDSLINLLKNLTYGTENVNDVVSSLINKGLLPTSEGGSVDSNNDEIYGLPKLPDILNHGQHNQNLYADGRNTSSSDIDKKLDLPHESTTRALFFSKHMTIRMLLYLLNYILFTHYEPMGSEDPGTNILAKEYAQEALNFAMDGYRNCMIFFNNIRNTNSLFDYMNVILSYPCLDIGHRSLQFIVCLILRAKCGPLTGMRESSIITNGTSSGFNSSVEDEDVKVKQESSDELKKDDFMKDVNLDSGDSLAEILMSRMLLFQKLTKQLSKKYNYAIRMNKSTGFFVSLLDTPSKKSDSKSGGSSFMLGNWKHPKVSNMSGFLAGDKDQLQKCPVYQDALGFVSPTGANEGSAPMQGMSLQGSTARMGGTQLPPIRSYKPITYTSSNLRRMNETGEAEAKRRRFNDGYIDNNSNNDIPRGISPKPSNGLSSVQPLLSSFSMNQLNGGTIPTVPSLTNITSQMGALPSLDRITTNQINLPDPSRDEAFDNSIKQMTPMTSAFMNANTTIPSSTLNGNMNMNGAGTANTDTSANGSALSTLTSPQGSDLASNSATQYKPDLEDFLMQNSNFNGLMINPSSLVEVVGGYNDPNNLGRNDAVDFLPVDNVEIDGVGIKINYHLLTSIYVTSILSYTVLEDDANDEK

Sequence | PBM E-score
AAGTAGGG | -0.153
CAACCTAC | -0.0175
AACTTTTC | -0.123
AACTGGGC | -0.0448
AGGGCCGG | 0.326
AACATCCC | 0.173
GGGACGCA | -0.212
CCCGTGGC | 0.123
GCCACCTA | -0.22
AATCCAAA | -0.017
CATGGGCA | -0.15
GTGCAGCA | -0.0592
AATTCACG | -0.0684
GCTGTTCA | -0.216
ACAGAATA | -0.143
GAATACAC | -0.128
GCAAGTGA | -0.229
TAGGACAA | -0.3
AGGTTACA | -0.195
ATTAGCCA | -0.288
CCGGGGAC | 0.27
GTCTATCA | -0.185
ACCTCGAA | -0.135
ACAGGAAA | 0.0484
ACATGATA | -0.108

Sequence | PBM E-score
GGGCTTAC | 0.214
AAGGTGTG | -0.236
CCCCTCAA | 0.0393
GTACCCCA | 0.00205
CTACGTCC | 0.285
ACAGGGCT | -0.257
ACATTACC | 0.106
ACGTAGCC | -0.0937
ATTTAAGA | -0.164
TAAGGCAA | -0.0478
ATACCTTA | -0.0965
TCAGGCCA | -0.114
AGTGTTAG | -0.0935
AGTCATTG | -0.248
CCACGGCA | 0.0838
GGCTGTCA | -0.214
ACAGGGAG | -0.174
CCGAACTC | 0.2
AGTGCAGG | -0.175
AGATACCA | 0.0223
ACTCTCAT | -0.064
AGCGGAAA | 0.318
CCATGTAA | 0.142
CACCGAAA | 0.261
CTCACAGC | -0.165

Sequence | PBM E-score
ATCTGCGG | 0.253
ACCAATTG | -0.262
AAATCCTA | 0.0544
AGAACCGG | 0.35
ACGCCTCC | 0.00213
ATCCCCAG | -0.0923
AGGGGGAG | -0.227
AGCCGTTG | 0.0608
ACTGAAGA | -0.0804
ATCTGAAT | -0.155
CCCGGCGC | 0.291
CCGTTGCC | 0.299
AGAGATTA | -0.203
ACCCGACG | 0.307
CATAGGAG | -0.259
ACTAACCA | -0.0126
GCGCCTAA | -0.00505
CATGGTGG | -0.137
CGTATTCC | 0.0742
GCAGACCC | -0.0632
CGGCAGCC | 0.212
AGTCCATA | -0.0281
AATCTTAC | 0.119
GATCCGAC | 0.273
ACTCGGCT | 0.304

Sequence | PBM E-score
AAGTTTGA | 0.047
CACGAGCC | -0.164
ACGTCCGA | 0.386
AGTCTTAC | -0.185
AGCTTGCA | -0.176
AAGATGTC | -0.0922
AATCGTGT | 0.103
CTTTCCAA | 0.0301
AAGCACAT | 0.0129
AACTCGGA | 0.345
AGACGTCA | -0.297
ACAATTTA | -0.221
AACGCACG | 0.0654
GAATCTGA | -0.0157
TCACACAA | -0.241
CTCCAGGC | -0.129
CTTGCGGC | 0.0935
AATCCCGG | 0.397
GGCAGCAA | -0.00972
ATGCGACA | -0.157
ACACCCTC | -0.00479
GGCCGGCC | 0.367
CTTCTGCA | -0.0482
GCGAACGA | 0.00245
CGAGCGAG | 0.175

Sequence | PBM E-score
GTAAGGAA | -0.202
ACCCCGTG | 0.158
CGTAATAC | 0.124
CCGCTGGA | 0.108
ATTATTCG | 0.176
GTAGCATA | -0.0458
TTAAAAAA | -0.103
CCGTATCC | 0.165
CATGTGCC | -0.067
GTCCCGTA | 0.0594
ATCCACGG | 0.264
CACACTAC | -0.24
AATTTAAC | 0.0595
CTCATGAA | -0.051
AGTTTGTG | -0.0491
ATAAACAA | -0.1
CAGGGGCA | -0.17
CTCCTTCA | -0.223
AGGGATAT | 0.012
GTCAAACA | -0.261
CCCATGGC | 0.0284
GCGTAACA | 0.0744
AATTTGCA | -0.0183
AACTTGCG | -0.00342
ATCAGACA | -0.188

Sequence | PBM E-score
CTAGTTAC | -0.0907
AAGGATTA | -0.111
GTACATTA | -0.0927
AGGTTGAC | -0.0609
AAAGTTTC | -0.105
GAGTCGCA | -0.275
GGCAATGA | -0.0328
CAGGTGAG | -0.342
CACGCTGG | -0.203
CAAGTACA | -0.189
GGCCCCAC | 0.0103
CTGACTTC | -0.0182
AGCAACCG | -0.097
CATCAGGG | -0.145
AACGGGCT | 0.119
GGTGATTA | 0.303
ACCCTCCA | -0.143
AATCGGCC | 0.285
CCGATCCA | 0.269
AAACCTGT | -0.117
ACTAGCAT | -0.0643
CAGACGGA | 0.118
ACATATTC | -0.119
CGCATACC | 0.242
AAGGCATG | -0.352

Sequence | PBM E-score
AGGCGTAA | -0.171
ACCTGCAT | -0.1
CTAATAAG | -0.178
ATCCTCAT | -0.243
GGTCCGCA | 0.3
AGGCAGTC | -0.124
CCTTCTCC | -0.0851
CCAACGTC | -0.0117
CTCAATTA | -0.221
CGACACGA | 0.0811
AACGAAGC | -0.267
CCAATCAC | -0.0231
TCCCGGCA | 0.277
TCTAACAA | -0.208
CTTGTATA | -0.133
CCACCCCC | -0.00462
CAAGAAAG | -0.123
AGGAACCA | -0.102
ATGTGCTG | -0.0561
AGTACTGC | -0.199
GTCTGTGA | -0.165
AGCCCTGA | -0.136
